In assay [1] the target is T1, SARS-CoV-2 M^pro (Severe acute respiratory syndrome coronavirus 2, UniProt P0DTD1). In words: biochemical.
Assay [2] concerns the target T1, SARS-CoV-2 M^pro. In words: SPR assay (Biacore T200, steady state affinity). Type of assay: binding. Conditions: steady state affinity model, 25 °C. Background: In SPR one partner is held on a chip, and binding of the other changes the refractive index at the surface.
Assay [3] addresses T1, SARS-CoV-2 M^pro. Put plainly: Dynamic light scattering (DLS) aggregation assay. Particulars: M^pro 10 μmol/L, CHLA 500 μmol/L.
The target in assay [4] is T1, SARS-CoV-2 M^pro. In words: Spectral shift (SpS) measurements. Format: binding. Conditions: M^pro 100 nmol/L, Hill coefficient set to 1.
In assay [5] the target is T1, SARS-CoV-2 M^pro. Put plainly: Thermal shift assay (TSA, nano-DSF). Format: binding. Conditions: M^pro 10 μmol/L, CHLA 500 μmol/L; M^pro alone 57.6 °C. (In general: In DSF a fluorescence change marks the thermal transition of the protein.)

What is called IC50 is the concentration that gives 50% inhibition. Read a low IC50 as greater potency. In general, Kd refers to the constant that tells how readily two partners part at equilibrium. On to `O=C(O)C[C@@H]1C(=O)O[C@H]2[C@@H]3OC(=O)c4cc(O)c(O)c(O)c4-c4c(cc(O)c(O)c4O)C(=O)OC[C@H]2O[C@@H](OC(=O)c2cc(O)c(O)c(O)c2)[C@@H]3OC(=O)c2cc(O)c(O)c3c2[C@H]1[C@H](O)C(=O)O3` [CHLA, chebulagic acid], for which the IC50 on SARS-CoV-2 M^pro [1] was 2000 ± 160 nM. Moreover, the Kd at SARS-CoV-2 M^pro [2] was 23.8 nM; at SARS-CoV-2 M^pro [4], 24.8 nM. In addition, on SARS-CoV-2 M^pro [3] (M^pro alone 0.48), the “polydispersity index (PDI) of M^pro upon CHLA addition” value came out at 1.14. The “cumulant radius of M^pro–CHLA complex” value on SARS-CoV-2 M^pro [3] (M^pro alone 3.8 nm) was 25.85 nm. Further, the “melting point of SARS-CoV-2 M^pro in the M^pro–CHLA complex” value on SARS-CoV-2 M^pro [5] is 80.0 °C.

Values taken from article PMC12648101, “Targeting SARS-CoV-2 main protease for the discovery of a broad-spectrum COVID-19 inhibitor by intensive multi-tiered validation” (Acta Pharmaceutica Sinica. B, 2025).
